As a reminder, the % Inhibition is the drop in the measured response relative to a control, in per cent.

The text below walks through data of ChEMBL document CHEMBL4888484, “Replenishing the malaria drug discovery pipeline: Screening and hit evaluation of the MMV Hit Generation Library 1 (HGL1) against asexual blood stage Plasmodium falciparum ,using a nano luciferase reporter read-out” (2022).

The campaign covered roughly 150,000 compounds. About 540 (0.36%) showed an effect of 50% or more. This is one part of the list.

This test concerns Plasmodium falciparum. As to the kind of experiment: Primary screen in NF54 nanoGlo assay, in single point, at 2uM, 72h; a lower Z score goes with more inhibition. The format is functional, Erythrocyte. The note with it: timepoint 72 hour.
For `CCCO/C(=N/C(=O)c1cccc(OC)c1)NCc1ccc2c(c1)OCO2`, the “% Inhibition” value stood at 4% and the Z score is on record as -0.59.
The matching figures for `Cc1cnn(C[C@H]2CCCS(=O)(=O)C2)c1`: -3% and 0.32.
The matching figures for `NC(=O)c1nc(Cn2ccnc2-c2ccc(-c3ccccc3)s2)no1`: 0% and 0.01.
The matching figures for `O=C(Nc1ccn(CCc2ccncc2)n1)c1cc2c(s1)CCC2`: -18% and 1.53.
For the molecule `CN(C)C(=O)N1CCC(c2nc(-c3ncc[nH]3)no2)CC1`, the “% Inhibition” value is reported as -1% and the Z score was determined as 0.09.
Take `CCC1=C(c2ccc(C)cc2)S(=O)(=O)N=C1N1CCC(C(=O)NCc2ccccc2OC)CC1`: the “% Inhibition” value is recorded as -16% and the Z score stood at 1.71.
In the case of `CCC(CO)N1CCN(C(CC)C(N)=O)CC1` (stereo not given), the “% Inhibition” value is -8% and the Z score was found to be 1.18.
The matching figures for `CC(C)[C@H](Cn1c(=O)[nH]c2ccccc2c1=O)N1CCOCC1`: -3% and 0.6.
The matching figures for `NC(=O)CN1CCC(c2ncnn2-c2cccnc2)CC1`: -3% and 0.54.
For `CCN(Cc1nccn1C)C[C@H](C)c1ccccc1`, the “% Inhibition” value was 0% and the Z score is given as -0.04.
The matching figures for `C[C@H](NC(=O)C1(C#N)CCCC1)c1cccc(-n2ccnc2)c1`: 10% and -1.38.
With `CC(=O)N1C[C@H]2CN(C(=O)Nc3cc(C)ccc3C)C[C@@]2(C(=O)N2CCCC2)C1`, the “% Inhibition” value was found to be 1% and the Z score is -0.15.
On to `CCOc1cccc(C(=O)NC2(C#N)CCC3(CC2)OCCO3)c1`, for which the “% Inhibition” value was -15% and the Z score is 1.94.
The matching figures for `O=C(NC[C@]1(O)CCc2ccccc2C1)c1ccco1`: -15% and 1.94.
The matching figures for `Cc1nc(CN(C)C(=O)c2ccc3[nH]cnc3c2)no1`: 3% and -0.46.
Consider `O=C(Nc1nc(-c2ccccn2)cs1)C1=COCCO1`, for which the “% Inhibition” value was -10% and the Z score amounted to 1.87.
The matching figures for `COCCCN(CC(=O)N(CCc1c[nH]c2ccccc12)Cc1ccc(Cl)cc1)Cc1ccccc1F`: -5% and 0.96.
The matching figures for `COc1ccc(-n2nc(C)c3c(C(=O)N[C@@H](C)Cc4cn(C)nc4C)cc(C)nc32)cc1`: 2% and -0.27.
The matching figures for `Cc1cc(=O)n(C)cc1NC(=O)N[C@@H]1c2ccccc2CC[C@@H]1O`: -2% and 0.35.
In the case of `O=C(NCC(O)COc1ccc(F)c(F)c1)C1CC=CCC1` (stereo not given), the “% Inhibition” value is reported as -5% and the Z score is listed as 0.99.
The matching figures for `Cc1cccc(-c2nc(N3CC4(C)CC3CC(C)(C)C4)c3ccccc3n2)c1` (stereo not given): -12% and 1.6.
For `CC[C@H](O)CN1CCC(Nc2ncnc3cc(Cl)ccc23)CC1`, the “% Inhibition” value stood at 49% and the Z score was -5.78.
The matching figures for `CC[C@@H](C(=O)N(C)c1oc(C)nc1C#N)c1ccc(F)cc1`: -10% and 1.71.
The matching figures for `Cc1nn(C)cc1NC(=O)CN1CCc2n[nH]cc2C1`: -5% and 0.64.
The matching figures for `Cc1nn(-c2ccccc2)c(C)c1-c1n[nH]c(C(=O)O)c1Br`: 15% and -1.9.
In the case of `N#Cc1ncccc1N1CCC(C(F)(F)F)CC1`, the “% Inhibition” value is given as 3% and the Z score is recorded as -0.37.
With `Cc1c(CN2C[C@H](OC(C)C)[C@@H](O)C2)cc(C#N)n1C`, the “% Inhibition” value is recorded as 0% and the Z score is -0.03.
The matching figures for `CS(=O)(=O)NC1(CC2CC2)CCN(S(=O)(=O)c2ccccc2)CC1`: -7% and 1.39.
The matching figures for `c1ccc(-n2ncc3c(N4CCCCCC4)nnnc32)cc1`: -16% and 2.37.
The matching figures for `CCCS(=O)(=O)N(C)Cc1ccc(Br)c(F)c1`: -17% and 3.13.
Consider `CC(C)c1cc(C(=O)N[C@H]2CCN(Cc3cscn3)C[C@@H]2O)no1`, for which the “% Inhibition” value was determined as 0% and the Z score is reported as 0.06.
The matching figures for `Cc1csc(C(=O)NCC2CCCC23NC(=O)NC3=O)c1Cl` (stereo not given): -10% and 1.01.
For the molecule `O=C(C1CCCC1)N1CCN(c2nc3cccnc3o2)CC1`, the “% Inhibition” value is 3% and the Z score is listed as -0.36.
For the molecule `C[C@H](NC(=O)C(C)(C)N1CCCC1)c1ccc(O)c(F)c1`, the “% Inhibition” value was 4% and the Z score is listed as -0.77.
The matching figures for `O=C(Cc1ccc(Cl)cc1)Nc1ccc(-c2nc3cc(Cl)ccc3o2)cc1`: -3% and 0.44.
The matching figures for `Cc1nnc(CNC2CCCC(C)C2C)s1` (stereo not given): -7% and 0.84.
The matching figures for `CCC(=O)Nc1cccc(OCC(=O)N2[C@@H]3CC[C@H]2CNC(=O)C3)c1`: 9% and -1.15.
Consider `Cc1csc(C#CCNC(=O)OC(C)(C)C)n1`, for which the “% Inhibition” value is -8% and the Z score is reported as 1.23.
The matching figures for `CCNC(=O)c1csc(COc2ccc3c(c2)[C@H](c2ccc(C)cc2)N(C(=O)CC(C)C)CC3)n1`: 32% and -4.94.
The matching figures for `O=S(=O)(NCc1cn2c(n1)CCCC2)C1COC1`: -6% and 1.13.
Turning to `CC(=O)N1CCc2cc(S(=O)(=O)N3CCC(CC(=O)Nc4ccc(C)c(Cl)c4)CC3)ccc21`, the “% Inhibition” value amounted to 5% and the Z score was -0.82.
As to `COc1ccc(NC(=O)Cn2cnc3nc(N4CCCCC4)ncc3c2=O)cc1OC`, the “% Inhibition” value came out at 9% and the Z score is -1.7.
On to `COc1ccccc1CC(C)(C)NC(=O)c1cc(C(=O)O)ccn1`, for which the “% Inhibition” value turned out to be 1% and the Z score was -0.21.
In the case of `Cc1ccc(C)c(C2CC3CC2C2C(=O)N(c4cccc(Cl)c4)C(=O)C32)c1` (stereo not given), the “% Inhibition” value came out at 7% and the Z score was -0.84.
The matching figures for `CNS(=O)(=O)N1CCN(c2ncnc3c2ncn3C2CC2)CC1`: -7% and 1.5.
Take `Cc1cc(C(=O)NCC(C)(C)C2(O)CCOCC2)nn1C(C)C`: the “% Inhibition” value is on record as -14% and the Z score was found to be 1.74.
The matching figures for `Nc1ccc(Br)c(F)c1N`: -7% and 0.88.
The matching figures for `CC1CC(NC(=O)N(C)CCOCC2CC2)C1` (stereo not given): -17% and 2.67.
The matching figures for `COCCCN(C(=O)c1nc(C)sc1C)C1CCN(C)CC1`: 0% and 0.06.
On to `CC(=O)CC(=O)NC(=N)c1ccccc1`, for which the “% Inhibition” value is reported as 7% and the Z score was -0.8.
The matching figures for `O=C(c1ccc(O)nc1)N1CCC[C@@H]1CN1CCc2ccccc21`: 4% and -0.71.
The matching figures for `O=C(NCc1cccc2c1OCC2)N[C@H]1CC12CCOCC2`: -16% and 1.68.
The matching figures for `Cc1ccc(CCC(=O)N[C@H]2CCOC[C@H]2C2CCOCC2)cc1C`: -7% and 1.34.
With `CCC(Oc1ccc2c(c1)C(c1ccccc1)N(Cc1cccc(C)c1)CC2)C(=O)NCC1CC1` (stereo not given), the “% Inhibition” value worked out at 19% and the Z score is listed as -2.31.
As for `CC(C)(C)C(=O)N1CCC(Oc2nncs2)CC1`, the “% Inhibition” value was -9% and the Z score amounted to 1.42.
